# Measurements published in PubChem BioAssay AID504332 (National Center for Advancing Translational Sciences (NCATS), 2011).
# Values joined by “and” are separate entries in the source; they are usually repeats but may differ in a detail not shown here. Identical values can stand only once. Out of some 350,000 compounds screened, about 31,000 (8.9%) were called active. Inconclusive results, whose numbers are uncertain, are shown with a selection of clear calls. The call rests on the fitted dose curve; in most records, active means well fitted inhibition curve with a large enough effect; inconclusive means small, poorly fitted or top-dose-only effect; inactive means no such curve, though single readings can be large or run the other way. Potencies of inconclusive entries are doubtful fits and often do not repeat.
# Target: Histone-lysine N-methyltransferase EHMT2 (Homo sapiens) (UniProt Q96KQ7)
# UniProt Q96KQ7, sequence (Q96KQ7 whole entry, looked up): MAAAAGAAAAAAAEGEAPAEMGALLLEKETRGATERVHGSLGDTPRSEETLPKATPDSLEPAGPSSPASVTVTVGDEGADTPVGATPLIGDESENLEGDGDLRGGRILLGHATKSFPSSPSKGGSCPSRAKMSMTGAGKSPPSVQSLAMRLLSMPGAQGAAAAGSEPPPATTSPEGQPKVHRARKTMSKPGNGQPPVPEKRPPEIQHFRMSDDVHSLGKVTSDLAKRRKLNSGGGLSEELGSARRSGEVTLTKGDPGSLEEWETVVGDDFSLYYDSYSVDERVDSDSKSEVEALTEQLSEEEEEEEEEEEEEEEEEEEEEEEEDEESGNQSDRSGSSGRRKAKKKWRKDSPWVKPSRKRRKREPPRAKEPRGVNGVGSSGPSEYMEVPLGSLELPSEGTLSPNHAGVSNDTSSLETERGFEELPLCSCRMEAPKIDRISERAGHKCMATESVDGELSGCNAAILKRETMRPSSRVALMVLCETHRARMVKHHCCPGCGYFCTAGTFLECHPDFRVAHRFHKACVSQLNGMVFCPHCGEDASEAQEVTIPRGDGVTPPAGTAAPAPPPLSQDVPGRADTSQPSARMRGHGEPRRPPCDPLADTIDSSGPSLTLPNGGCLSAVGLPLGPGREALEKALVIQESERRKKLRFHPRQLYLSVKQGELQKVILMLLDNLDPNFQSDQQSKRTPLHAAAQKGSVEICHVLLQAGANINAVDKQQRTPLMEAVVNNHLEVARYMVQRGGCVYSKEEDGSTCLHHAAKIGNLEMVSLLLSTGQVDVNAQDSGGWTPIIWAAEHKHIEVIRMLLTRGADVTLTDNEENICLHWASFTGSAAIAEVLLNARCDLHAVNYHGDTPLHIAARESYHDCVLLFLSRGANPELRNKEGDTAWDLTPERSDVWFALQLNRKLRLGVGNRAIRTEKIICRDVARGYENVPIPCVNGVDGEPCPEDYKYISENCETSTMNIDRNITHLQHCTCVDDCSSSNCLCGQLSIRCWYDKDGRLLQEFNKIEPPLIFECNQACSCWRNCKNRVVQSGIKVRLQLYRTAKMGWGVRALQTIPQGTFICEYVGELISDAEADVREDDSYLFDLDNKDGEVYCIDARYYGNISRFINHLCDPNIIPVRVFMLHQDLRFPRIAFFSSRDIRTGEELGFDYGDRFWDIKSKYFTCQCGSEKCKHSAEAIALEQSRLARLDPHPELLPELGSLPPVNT
# Experiment: qHTS Assay for Inhibitors of Histone Lysine Methyltransferase G9a; further: nearly all actives have a fitted effect of over 75% in size
# Settings: G9a H3K9 monomethylation, AlphaScreen, 2 h; activity, negative = inhibition: at 59 µM (top of the series) unless noted
# Procedure, shortened: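 Step 1: enzyme (final 20 nM) with compound, 15 min RT. Step 2: substrate peptide 500 nM and SAM 20 uM, 2 h RT. Step 3: anti-H3K9me1 antibody and AlphaScreen beads, 10 min, then plate read.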
# On the % scale 0 is the no-effect control and ±100 the full control effect; potency means the concentration at half of the fitted maximal effect; tags describe the fitted curve by direction and shape.
Compound,Potency,"activity, negative = inhibition"
CCN(C(=O)COC(=O)/C=C/c1cccc([N+](=O)[O-])c1)c1ccccc1,"inconclusive: 50.1 µM [inhibitor, partial curve, poor fit]",–
Cc1nn(C2CCS(=O)(=O)C2)c(C)c1C=O (stereo unspecified),inactive,–
CC(c1ccccn1)N(C)C(=O)c1ccc2nc(Cc3ccccc3F)oc2c1 (stereo unspecified),inactive,–
COCc1ccc(O)c2ncccc12,"inconclusive: 89.1 µM [inhibitor, single point]",–
Cc1ccc(Nc2nnc(SCC(=O)Nc3ncc(C(F)(F)F)cc3Cl)s2)cc1,active: 7.08 µM,–
CC(C(=O)NCCC1=CCCCC1)c1ccc([N+](=O)[O-])cc1 (stereo unspecified),"inconclusive: 0.631 µM [inhibitor, partial curve, poor fit]",–
CN(C(=O)CC1C(=O)NCCN1CC1CCCCC1)C1CCOCC1 (stereo unspecified),–,inconclusive: -63.8% [inhibitor]
O=C(O)CN1C(=O)C(=O)N(Cc2ccc(Cl)c(Cl)c2)C1=O,"inconclusive: 79.4 µM [inhibitor, partial curve, poor fit]",–
COc1cc(OC)c(C(=O)NCc2cccnc2)cc1OC,inactive,–
Cc1ccc(OCC(=O)N(C)CC(=O)NCc2ccco2)c(Br)c1,active: 56.2 µM,–
O=C1c2ccccc2C(=O)c2c(NCc3cccnc3)cccc21,"inconclusive: 6.31 µM [inhibitor, full curve, poor fit]",–
O=C(CS(=O)(=O)c1ccc(F)cc1)N1CCN(c2ccccc2)CC1,"inconclusive: 79.4 µM [inhibitor, single point]",–
O=C(CN1C(=O)C2CC=CCC2C1=O)Nc1nnc(SCc2c(Cl)cccc2Cl)s1 (stereo unspecified),"inconclusive: 1.78 µM [inhibitor, partial curve, poor fit]",–
COCc1nnc(NS(=O)(=O)c2ccccc2)s1,"inconclusive: 15.8 µM [inhibitor, partial curve, poor fit]",–
CC(=O)Nc1ccc(Sc2ncccc2C(=O)Nc2ccc(F)cc2)cn1,–,inconclusive: -68.7% [inhibitor]
CC(C)C(NC(=O)c1ccc(Cl)cc1)C(=O)NC1=NCCS1 (stereo unspecified),"inconclusive: 89.1 µM [inhibitor, single point]",–
CN(Cc1ccco1)S(=O)(=O)c1nnc(NC(=O)c2ccccc2Cl)s1,inactive,–
CCC(=O)N1CCc2cc(S(=O)(=O)NC(C(=O)NCCc3cccc(C)c3)C(C)C)ccc21 (stereo unspecified),inactive,–
O=C(CSc1ccc([N+](=O)[O-])cn1)Nc1ccc2c(c1)OCCO2,"inconclusive: 39.8 µM [inhibitor, full curve, poor fit]",–
CCN(CC)c1nn2c(=O)c(C(=O)NCc3ccc(N(C)C)cc3)cnc2s1,"inconclusive: 35.5 µM [inhibitor, partial curve, poor fit]",–
COc1ccccc1OCc1cc(C(=O)N2CCN(C)C(c3ccccc3)C2)no1 (stereo unspecified),"inconclusive: 100 µM [inhibitor, partial curve, poor fit]",–
COc1ccc(CNC(=O)Cn2c(-c3ccccc3)cc(C(C)=O)c2C)cc1OC,inactive,–
CC12CC(c3ccccc3O1)N(C(=O)c1ccco1)C(=S)N2c1ccc(F)cc1 (stereo unspecified),"inconclusive: 22.4 µM [inhibitor, single point]",–

Compound,Potency,"activity, negative = inhibition"
COc1ccc(OC)c2c1C(=O)c1ccccc1C2=O,inactive,–
C#CCOCCOCCOCCNc1nc(N2CCN(C(=O)[C@H](CCC(=O)O)n3cc(C(N)Cc4ccc(O)cc4)nn3)CC2)nc(N2CCN(C(=O)[C@H](Cc3ccc(O)cc3)n3cc(C(N)CC(C)C)nn3)CC2)n1 (stereo partly specified),–,inconclusive: -118% [inhibitor] [at 12.7 µM]
CCC(CC)CN1CCN=C1Nc1ccccc1,–,inactive: -3.27% [at 2.33 µM]
CCc1ccccc1N(C)C(=O)c1sc2nc3n(c(=O)c2c1C)CCCCC3,"inconclusive: 8.91 µM [inhibitor, partial curve]",–
O=C(NCCc1csc(-c2ccc(F)cc2)n1)c1cccc(F)c1,inactive,–
COc1ccccc1CNC(=O)C1CCN(S(=O)(=O)c2cn(C)cn2)CC1,inactive,–
CCOC(=O)C1CCCN(Cc2c(F)cccc2Cl)C1 (stereo unspecified),"inconclusive: 5.01 µM [inhibitor, full curve, poor fit]",–
COC(C(=O)N/N=C(\C)CC(=O)Nc1ccc(N(C)C)cc1)c1ccccc1 (stereo unspecified),active: 15.8 µM,–
CCCCc1c(C)nc2cc(-c3ccco3)[nH]n2c1=O,"inconclusive: 79.4 µM [inhibitor, partial curve, poor fit]",–
CCOC(=O)c1ccc(NC(=S)NCCc2ccc(F)cc2)cc1,inactive,–
Cc1cc(/C=N/n2cnnc2)c(C)n1-c1ccc(OCc2ccccc2F)cc1,–,inconclusive: -72.7% [inhibitor]
CSc1nc2cc(Oc3cccc(Cl)c3Cl)c(Cl)cc2[nH]1,"inconclusive: 35.5 µM [inhibitor, single point] and inconclusive: 3.16 µM [inhibitor, partial curve, poor fit]",–
COc1ccc(C(=O)CCC(=O)Nc2ccc(C)c(Cl)c2)cc1,inactive,–
CCc1cccc(CC)c1NC(=S)NCCc1c(C)[nH]c2ccc(C)cc12,active: 39.8 µM,–
CC(C)C(=O)Nc1c2c(nn1-c1ccc(F)cc1)CS(=O)(=O)C2,inactive,–
Cc1c(C(=O)N2CCCCC2)oc2ccc(S(=O)(=O)N3CC(C)CC(C)C3)cc12 (stereo unspecified),"inconclusive: 50.1 µM [inhibitor, partial curve]",–
O=C(CSC1=NS(=O)(=O)c2cc(F)ccc2N1)NCc1ccccc1Cl,inactive,–
Cc1ccc(C)c(CSc2nnc3[nH]c(=O)cc(-c4ccccc4)n23)c1,inactive,–
Cc1nc2ccccc2nc1OCC(=O)NCc1ccc2c(c1)OCO2,inactive,–
Oc1ccc2ccccc2c1C=Nc1ccccc1-c1nc2ccccc2[nH]1,active: 7.08 µM,–
O=C(O)Cc1cn(-c2ccccc2)nc1-c1ccccc1,inactive,–
CCN1C(=NCc2cc(OC)c(OC)c(OC)c2)N[C@@H](c2ccccc2)[C@H](C(=O)OC)[C@H]1C,"inconclusive: 100 µM [inhibitor, single point]",–
O=C(NCCc1ccccc1)c1ccc(NS(=O)(=O)c2ccc3[nH]c(=O)[nH]c3c2)cc1,"inconclusive: 79.4 µM [inhibitor, single point]",–
